# In PubChem BioAssay AID1030 (National Center for Advancing Translational Sciences (NCATS), 2008):
# Among all 220,000 compounds or so, about 16,000 (7.3%) were called active. Inconclusive means that the source gave no clear call. Such entries were picked first, then a sample of the others. The call rests on the fitted dose curve; in most records, active means well fitted inhibition curve with a large enough effect (not every such curve was filed as active); inconclusive means small, poorly fitted or top-dose-only effect, or another doubt; inactive means no such curve, though single readings can be large or run the other way. No potency is given beside an inconclusive call; the fits are too rough.
# Target: Aldehyde dehydrogenase 1A1 (Homo sapiens) (UniProt P00352)
# Sequence of UniProt P00352 (P00352 whole entry, looked up): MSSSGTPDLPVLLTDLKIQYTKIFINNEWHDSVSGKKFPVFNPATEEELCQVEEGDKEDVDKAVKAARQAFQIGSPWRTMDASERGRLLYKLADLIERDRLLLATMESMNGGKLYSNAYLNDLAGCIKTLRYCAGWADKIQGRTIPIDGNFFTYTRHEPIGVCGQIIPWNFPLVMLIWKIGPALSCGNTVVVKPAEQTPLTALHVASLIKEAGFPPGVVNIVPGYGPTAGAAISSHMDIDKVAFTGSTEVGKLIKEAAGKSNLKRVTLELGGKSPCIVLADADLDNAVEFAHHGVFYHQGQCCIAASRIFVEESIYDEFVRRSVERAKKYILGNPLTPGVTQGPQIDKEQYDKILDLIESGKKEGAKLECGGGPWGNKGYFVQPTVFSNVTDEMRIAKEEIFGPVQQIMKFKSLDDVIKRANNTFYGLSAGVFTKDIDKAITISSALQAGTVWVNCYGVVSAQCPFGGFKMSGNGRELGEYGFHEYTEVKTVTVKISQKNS
# Assay: qHTS Assay for Inhibitors of Aldehyde Dehydrogenase 1 (ALDH1A1);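 on activity, negative = inhibition: plate controls were no enzyme wells and a reference inhibitor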
# Settings: Purified ALDH1A1, NADH fluorescence, propionaldehyde substrate; series mostly up to 75.3 µM
# Potency means the concentration at half of the fitted maximal effect; tags describe the fitted curve by direction and shape.
Compound,Potency,"activity, negative = inhibition"
CCCSc1nnc(CSc2nc(C)cc(C)n2)n1C,inactive,–
O=S(=O)(c1ccc(NC2CCCc3ccccc32)nc1)N1CCOCC1 (stereo not given),inactive,–
COC(=O)C1=C(C)N(C)C(=S)NC1c1c(OC)ccc2ccccc12 (stereo not given),inactive,–
CC(C)CC1NC(=O)N(Cc2cc(=O)n3ccsc3n2)C1=O (stereo not given),inactive,–
COC(=O)c1c(NC(=O)CN2C(=O)NC(CCc3ccccc3)C2=O)sc2c1CCCCC2 (stereo not given),active: 20 µM,–
CC(=O)Oc1cccc(N2C(=O)c3ccc(C(=O)Nc4cccnc4)cc3C2=O)c1,active: 17.8 µM,–
O=C(Nc1cccn2ncnc12)C(Cl)Cl,inactive,–
O=c1cnc2cc([N+](=O)[O-])ccc2[nH]1,"inconclusive [inhibitor, partial curve]",–
COc1ccc(-c2nc(N)sc2C2(O)C(=O)Nc3c(Br)cc(F)cc32)cc1OC (stereo not given),active: 11.2 µM,–
O=C(C1=C[C@H](c2ccc(C(F)(F)F)cc2)C[C@H](OCc2ccc(CO)cc2)O1)N1CCCCCCC1,"inconclusive [inhibitor, partial curve]",–
COc1ccc(C(=O)N[C@H](C(=O)NCC2CCCCC2)C(C)C)cc1,"inconclusive [inhibitor, full curve]",–
NC(=O)CN(c1ccccc1)C1SC(=O)N(Cc2ccccc2)C1=O (stereo not given),"inconclusive [inhibitor, single point]",–
COc1ccc(Cl)cc1N1Cc2ccccc2C1,"inconclusive [inhibitor, single point]",–
CC1=NN(c2ccc(C)c(C)c2)C(=O)C1C(c1cccc(O)c1)C1C(=O)N(c2ccc(C)c(C)c2)N=C1C (stereo not given),active: 0.708 µM,–
COc1ccc(C2=C(SC)CC2=NC(C)(C)C)cc1,active: 17.8 µM,–
S=C(c1ccc(N2CCCC2)c(Br)c1)N1CCCCC1,"inconclusive [inhibitor, single point]",–
O=S(=O)(O)n1ccnc1 (tested in a mixture with another compound),–,inactive: 7.15% [at 13.5 µM]
CCOC(=O)C1CCN(CC(O)COc2ccc(C(C)(C)C)cc2)CC1 (stereo not given),"inconclusive [inhibitor, partial curve]",–
Cc1ccc(-c2nc(NCC3CCCO3)sc2C)cc1 (stereo not given),active: 28.2 µM,–
O=C(COC(=O)c1ccc(Cl)nc1)NCCC1=CCCCC1,"inconclusive [inhibitor, single point]",–
O=C(O)/C=C/c1ccc(OCCCF)cc1,inactive,–
CCOc1ccc(C2c3c(oc4cc(C)c(C)cc4c3=O)C(=O)N2CCCN2CCOCC2)cc1 (stereo not given),active: 7.94 µM,–
CCSc1ccccc1C(=O)Nc1nncs1,"inconclusive [inhibitor, single point]",–
CCOC(=O)c1[nH]c2cc(OC)c(OC)cc2c1NC(=O)CN(C)C1CCCCC1,"inconclusive [inhibitor, partial curve]",–
Cc1ccc(C2=CC(c3cccs3)n3nnnc3N2)cc1 (stereo not given),inactive,–

Compound,Potency,"activity, negative = inhibition"
CC(=O)Nc1ccc(S(=O)(=O)Nc2ccc([N+](=O)[O-])cc2)cc1,"inconclusive [inhibitor, single point]",–
O=C(Cn1cncn1)N1CCN(c2ccc(F)cc2)CC1,inactive,–
CC(/C=N\NC(=O)c1ccc(C)nc1)=C\c1ccccc1,"inconclusive [inhibitor, single point]",–
CCOc1ccc(N(CCC#N)S(=O)(=O)c2ccc(OC)cc2)cc1,"inconclusive [inhibitor, partial curve]",–
CCOC(=O)c1ccccc1NC(=O)Cn1cnc2c(oc3ccccc32)c1=O,"inconclusive [inhibitor, single point]",–
O=C(/C=C/c1ccc([N+](=O)[O-])cc1)NCc1cccs1,"inconclusive [inhibitor, single point]",–
COc1ccc(S(=O)(=O)N2CCC(C(N)=O)(N3CCCCC3)CC2)cc1,active: 17.8 µM,–
Cc1cc(C)nc(SCNC(=O)c2ccc(Cl)cc2)n1,inactive,–
NC(=S)n1[nH]c(-c2ccc([N+](=O)[O-])cc2)c(N=Nc2cccc([N+](=O)[O-])c2)c1=O,active: 25.1 µM,–
Nc1ccc(-c2nc3ccc(N)cc3o2)cc1,"inconclusive [inhibitor, partial curve]",–
Cc1cc(N2CCN(C)CC2)nc2ccc(NC(=S)N3CCCCCC3)cc12,"inconclusive [inhibitor, partial curve]",–
CCn1c(SC(C)C)nnc1-c1c[nH]c2ccccc12,"inconclusive [inhibitor, single point]",–
O=C(CNc1ccccc1OC(F)F)N1CCc2ccccc21,"inconclusive [inhibitor, single point]",–
CCOC(=O)c1ccc2ncc(C(=O)OCC)c(NCc3ccco3)c2c1,"inconclusive [inhibitor, partial curve]",–
CC(C)c1ccc(NC(=O)CCNS(=O)(=O)c2cccc3nonc23)cc1,active: 25.1 µM,–
O=C(NC1CCCCCC1)c1ccc2nc3cc(Cl)ccc3c(=O)n2c1,"inconclusive [inhibitor, partial curve]",–
CN(C)C(=O)c1ccc(-c2ccc3ncnc(NCc4ccccc4)c3c2)cc1,"inconclusive [inhibitor, partial curve]",–
CCOc1ccc(OCc2cccc(C(=O)Nc3ccc(CN4CCCCC4)cc3)c2)cc1,inactive,–
O=C(Nc1cccc(Cl)c1)N(CCN1CCOCC1)Cc1cccc(Cl)c1,"inconclusive [inhibitor, single point]",–
Cc1ccc(S(=O)(=O)c2c(C(=O)c3ccccc3)cnc3cc4c(cc23)OCCO4)cc1,"inconclusive [inhibitor, partial curve]",–
O=C(CCC1CCCCC1)NCCN1C2=NC[C@@H](Cc3ccccc3)N2C[C@H]1Cc1ccc(O)cc1,"inconclusive [inhibitor, partial curve]",–
O=C1CC(C(=O)Nc2ccccc2)C2(CCCCC2)O1 (stereo not given),inactive,–
O=C(CNC(=S)NC(=O)c1cccs1)c1ccccc1,active: 7.94 µM,–
Fc1cccc(Nc2nc(-c3ccncc3)nc3ccccc23)c1,"inconclusive [inhibitor, single point]",–
Cc1ccc2c(C)c(C(=O)N(Cc3cccs3)C3CCS(=O)(=O)C3)oc2c1 (stereo not given),"inconclusive [inhibitor, single point]",–

Compound,Potency,"activity, negative = inhibition"
CN(C)S(=O)(=O)c1cccc(NC(=O)COC(=O)c2ccc([N+](=O)[O-])o2)c1,active: 20 µM,–
CC(C)(C)c1csc(NC(=O)Cn2cnc3ccccc3c2=O)n1,active: 12.6 µM,–
COc1cc2c(C(=O)NCc3ccc(C)o3)cn(CC(C)C)c(=O)c2cc1OC,"inconclusive [inhibitor, partial curve]",–
COCCNC(=O)C1(CC(C)C)C=CCN1C(C)=O (stereo not given),inactive,–
CCn1c(O)c(N=NC(=S)NCC2CCCO2)c2ccccc21 (stereo not given),active: 0.501 µM,–
O=C(NCSc1ccnc(SCNC(=O)c2ccccc2)n1)c1ccccc1,inactive,–
COCCNC(=O)c1ccc(C(=O)C(=O)c2ccccc2)cc1,inactive,–
CC(C)CO/N=C1/[C@H]2O[C@@H]2[C@@H](O)[C@H]2[C@H]1CCn1c(=O)n(Cc3cc4c(cc3Cl)OCO4)c(=O)n12,–,inactive: 1.18% [at 13.5 µM]
O=C(NCC1CCCO1)c1coc2nc3ccccc3nc12 (stereo not given),"inconclusive [inhibitor, partial curve]",–
O=c1c(CCc2ccccc2)nc2cnc(Nc3ccccc3)nc2n1C[C@H]1CCCO1,"inconclusive [inhibitor, single point]",–
CC1(C)CC(=O)C2=C(C1)OC(N)=C(C#N)C21CCN(C(=O)OCc2ccccc2)CC1,active: 10 µM,–
Cc1ccc(S(=O)(=O)N2CCC(C(=O)N/N=C/c3cccnc3)CC2)cc1,inactive,–
COc1ccc(CCN2C(=O)CC(C(N)=O)SC2=Nc2ccccc2)cc1 (stereo not given),"inconclusive [inhibitor, single point]",–
COc1ccccc1/C=N/N1C(=O)C2C3C=CC(CC3)C2C1=O (stereo not given),active: 7.08 µM,–
CCC1CCCCN1C(=O)CSc1nc2c([nH]c3ccccc32)c(=O)n1C (stereo not given),"inconclusive [inhibitor, single point]",–
Cn1c(SCC(=O)N/N=C/C=C/c2ccco2)nc2ccccc21,active: 14.1 µM,–
CCN(CC)CCn1c(NC(=O)c2ccc(Cl)cc2)nc2ccccc21,"inconclusive [inhibitor, single point]",–
Cc1ccc(CSCCNC(=O)/C=C/c2ccccc2Cl)cc1,active: 4.47 µM,–
COc1ccc2c(c1)CCc1c(C(=O)Nc3c(C)n(C)n(-c4ccccc4)c3=O)noc1-2,inactive,–
Cc1ccc(N2C(=O)/C(=C\c3ccc(C(C)C)cc3)N=C2SC2CCOC2=O)cc1 (stereo not given),"inconclusive [inhibitor, partial curve]",–
FC(F)(F)c1ccccc1CN1CCN(C2CCCCCC2)CC1,"inconclusive [inhibitor, single point]",–
O=[N+]([O-])C(=C1Nc2ccccc2N1)C(Cl)=C(Cl)Cl,active: 6.31 µM,–
N#Cc1ccccc1NC(=O)CNc1ccccc1N1CCCCC1,active: 31.6 µM,–
C=CCn1c(CCC(=O)Nc2ccc(C)c(Cl)c2)nnc1SCC(=O)Nc1ccccc1C,"inconclusive [inhibitor, single point]",–
CCC1CCCCN1Cc1nc2c(c(=O)n(C)c(=O)n2C)n1Cc1cccc2ccccc12 (stereo not given),"inconclusive [inhibitor, partial curve]",–
